According to PMC11995724, “Antibiotic target discovery by integrated phenotypic and activity-based profiling of electrophilic fragments” (Cell chemical biology, 2025):
Hit rate of the full screen: of about 3,200 compounds, about 75 (2%) showed an effect of 50% or more. This is one part of the list.

These compounds were tested on T1, S. aureus MSSA476. Details: relative growth, OD600, TSB; 25 µM; inhibitor.
T1 construct: MSSA476
Design: species or system S. aureus MSSA476 (TSB) or V. cholerae SAD30 (LB); 384-well bacterial growth screen at 25 uM, OD600 relative to DMSO control

| Structure (SMILES) | % of control remaining |
| --- | --- |
| CC(CO)(Cc1ccc(F)cc1)NC(=O)CCl (stereo not drawn) [7-F06, 2-chloro-N-{2-[(4-fluorophenyl)methyl]-1-hydroxypropan-2-yl}acetamide] | 106.122% |
| C=CC(=O)Nc1cc(C)c(CC)cc1OC [3-O06, N-(4-ethyl-2-methoxy-5-methylphenyl)prop-2-enamide] | 90.9012% |
| C=CC(=O)N(C)Cc1cc(-c2ccccc2)[nH]n1 [1-B05, N-methyl-N-[(5-phenyl-1H-pyrazol-3-yl)methyl]prop-2-enamide] | 83.3407% |
| O=C(CCl)NC1CCCS(=O)(=O)c2ccccc21 (stereo not drawn) [6-O19, 2-chloro-N-(1,1-dioxo-2,3,4,5-tetrahydro-1lambda6-benzothiepin-5-yl)acetamide] | 84% |
| COc1ccc(NC(C)=O)cc1NC(=O)CCl [5-G03, 2-chloro-N-(5-acetamido-2-methoxyphenyl)acetamide] | 93.9891% |
| CC(Cl)C(=O)N1CCC(N(CC(F)(F)F)S(C)(=O)=O)CC1 (stereo not drawn) [7-C07, N-[1-(2-chloropropanoyl)piperidin-4-yl]-N-(2,2,2-trifluoroethyl)methanesulfonamide] | 100.471% |
| C=CC(=O)N(CC)CC(=O)N1CCc2c(cccc2NC(C)=O)C1 [3-K16, N-[2-(5-acetamido-1,2,3,4-tetrahydroisoquinolin-2-yl)-2-oxoethyl]-N-ethylprop-2-enamide] | 86.0253% |
| N#CC(=Cc1ccc(F)c(F)c1)C(=O)NC1CCCCC1 [9-J22, 2-cyano-N-cyclohexyl-3-(3,4-difluorophenyl)prop-2-enamide] | 94.0824% |
| CCCCNC(=O)C(C#N)=Cc1ccc(Cl)cc1Cl [9-O07, N-butyl-2-cyano-3-(2,4-dichlorophenyl)prop-2-enamide] | 101.573% |
| CCCn1c(C)cc(C=C(C#N)C(=O)Nc2ccc3c(c2)OCO3)c1C [9-G07, N-(1,3-dioxaindan-5-yl)-2-cyano-3-(2,5-dimethyl-1-propyl-1H-pyrrol-3-yl)prop-2-enamide] | 76.4045% |
| N#CC1=C(N2CCOCC2)SC(c2cccc([N+](=O)[O-])c2)NC1=O (stereo not drawn) [9-L19, 6-(morpholin-4-yl)-2-(3-nitrophenyl)-4-oxo-3,4-dihydro-2H-1,3-thiazine-5-carbonitrile] | 94.9813% |
| O=C(CCl)NC1CCCN(c2cc(N3CCOCC3)ncn2)C1 (stereo not drawn) [4-N21, 2-chloro-N-{1-[6-(morpholin-4-yl)pyrimidin-4-yl]piperidin-3-yl}acetamide] | 90.3287% |
| COc1ccc(CCNC(=O)CCl)cc1 [5-H12, 2-chloro-N-[2-(4-methoxyphenyl)ethyl]acetamide] | 102.732% |
| N#CC(C(=O)CCl)=C1NC2=C(CCc3ccccc32)S1 [10-N10, 4-chloro-2-{1H,2H,4H,5H-naphtho[1,2-d][1,3]thiazol-2-ylidene}-3-oxobutanenitrile] | 59.6875% |
| O=C1CCc2cc(C(=O)CCl)c(F)cc2N1 [10-O20, 6-(2-chloroacetyl)-7-fluoro-1,2,3,4-tetrahydroquinolin-2-one] | 3.75% |
| CN(C)C(=O)c1ccc(CNC(=O)CCl)cc1 [6-C16, 4-[(2-chloroacetamido)methyl]-N,N-dimethylbenzamide] | 116.78% |
| Cc1cc(C(=O)CCl)c(C)n1CC1CCCO1 (stereo not drawn) [10-B08, 2-chloro-1-{2,5-dimethyl-1-[(oxolan-2-yl)methyl]-1H-pyrrol-3-yl}ethan-1-one] | 113.437% |
| CCC(NC(=O)CCl)c1ccc(C)cc1 (stereo not drawn) [4-K17, 2-chloro-N-[1-(4-methylphenyl)propyl]acetamide] | 108.623% |
| C=CC(=O)N1CCC(C(=O)N[C@H]2CCC[C@H]2O)CC1 [2-K04, N-[(1S,2R)-2-hydroxycyclopentyl]-1-(prop-2-enoyl)piperidine-4-carboxamide] | 111.053% |
| O=C(O)c1csc(C(=O)CCl)c1 [10-E22, 5-(2-chloroacetyl)thiophene-3-carboxylic acid] | 88.4375% |
| Cl.O=C(CN1CCN(C(=O)CCl)CC1)Nc1cccc(F)c1 [5-P19, 2-[4-(2-chloroacetyl)piperazin-1-yl]-N-(3-fluorophenyl)acetamide hydrochloride] | 109.654% |
| O=C(CCl)NC1CCCc2nc(-c3ccccc3)sc21 (stereo not drawn) [7-B04, 2-chloro-N-(2-phenyl-4,5,6,7-tetrahydro-1,3-benzothiazol-7-yl)acetamide] | 81.6327% |
| Cc1cc(CN(Cc2ccn(C)n2)C(=O)CCl)ccc1F [5-G14, 2-chloro-N-[(4-fluoro-3-methylphenyl)methyl]-N-[(1-methyl-1H-pyrazol-3-yl)methyl]acetamide] | 96.5392% |

| Structure (SMILES) | % of control remaining |
| --- | --- |
| C=CC(=O)N1C2CCCC1CC1(C2)NC(=O)NC1=O (stereo not drawn) [2-K06, 9-(prop-2-enoyl)-9-azaspiro[bicyclo[3.3.1]nonane-3,4'-imidazolidine]-2',5'-dione] | 92.6023% |
| C=CC(=O)NC1CC(=O)N(CC)C1 (stereo not drawn) [2-O22, N-(1-ethyl-5-oxopyrrolidin-3-yl)prop-2-enamide] | 93.2985% |
| CC(C)NC(=O)C(C#N)=Cc1ccc(Cl)cc1Cl [9-K07, 2-cyano-3-(2,4-dichlorophenyl)-N-(propan-2-yl)prop-2-enamide] | 75.8052% |
| C=CC(=O)N1CC(OCc2ccccc2F)C1 [3-I15, 1-{3-[(2-fluorophenyl)methoxy]azetidin-1-yl}prop-2-en-1-one] | 114.933% |
| C=CCNC(=O)C(C#N)=Cc1ccc(C#N)cc1 [8-O07, 2-cyano-3-(4-cyanophenyl)-N-(prop-2-en-1-yl)prop-2-enamide] | 125.477% |
| Cc1ccc(C=C(C#N)C(=O)NC(C)C)o1 [8-I21, 2-cyano-3-(5-methylfuran-2-yl)-N-(propan-2-yl)prop-2-enamide] | 80.332% |
| COc1ccc(CCNC(=O)C(C)Cl)cc1 (stereo not drawn) [5-D12, 2-chloro-N-[2-(4-methoxyphenyl)ethyl]propanamide] | 107.104% |
| C=CC(=O)N1CCC(C(=O)N2CCC(c3ncco3)CC2)CC1 [2-B06, 1-{4-[4-(1,3-oxazol-2-yl)piperidine-1-carbonyl]piperidin-1-yl}prop-2-en-1-one] | 104.787% |
| C=CC(=O)N1CCC(c2ccnn2C)CC1 [2-I15, 1-[4-(1-methyl-1H-pyrazol-5-yl)piperidin-1-yl]prop-2-en-1-one] | 108.616% |
| N#CC(=Cc1ccc([N+](=O)[O-])c(Cl)c1)C(=O)NC1CCCCC1 [8-B08, 3-(3-chloro-4-nitrophenyl)-2-cyano-N-cyclohexylprop-2-enamide] | 29.8755% |
| CC(Cl)C(=O)N(Cc1cccs1)[C@@H]1C=C[C@H](CO)C1 (stereo partly drawn) [7-E14, 2-chloro-N-[(1S,4R)-4-(hydroxymethyl)cyclopent-2-en-1-yl]-N-[(thiophen-2-yl)methyl]propanamide] | 102.669% |
| COCCNC(=O)C(C#N)=Cc1ccc(O)cc1 [9-D22, 2-cyano-3-(4-hydroxyphenyl)-N-(2-methoxyethyl)prop-2-enamide] | 77.0037% |
| C=CC(=O)N(Cc1cc(F)c(F)c(F)c1)C(C)C1CCCO1 (stereo not drawn) [1-L13, N-[1-(oxolan-2-yl)ethyl]-N-[(3,4,5-trifluorophenyl)methyl]prop-2-enamide] | 106.901% |
| C=CC(=O)N1CC(c2ncon2)C1 [2-I03, 1-[3-(1,2,4-oxadiazol-3-yl)azetidin-1-yl]prop-2-en-1-one] | 118.016% |
| O=C(CCl)c1ccc2[nH]c(=O)[nH]c2c1 [10-I14, 5-(2-chloroacetyl)-2,3-dihydro-1H-1,3-benzodiazol-2-one] | 100.313% |
| N#CC(=Cc1cccc(O)c1)C(=O)NCCc1ccccc1 [8-N03, 2-cyano-3-(3-hydroxyphenyl)-N-(2-phenylethyl)prop-2-enamide] | 116.183% |
| Cc1nc(C)c(C(=O)CCl)o1 [10-N08, 2-chloro-1-(2,4-dimethyl-1,3-oxazol-5-yl)ethan-1-one] | 108.125% |
| Cl.O=C(CN1CCN(C(=O)CCl)CC1)Nc1ccc(F)cc1 [4-J20, 2-[4-(2-chloroacetyl)piperazin-1-yl]-N-(4-fluorophenyl)acetamide hydrochloride] | 128.823% |
| N#CC(=Cc1ccccc1)C(=O)Nc1nnn[nH]1 [8-J14, 2-cyano-3-phenyl-N-(1H-1,2,3,4-tetrazol-5-yl)prop-2-enamide] | 103.237% |
| CC(Cl)C(=O)N1C2C=C(c3ccccc3)CC1CC2 (stereo not drawn) [7-C09, 2-chloro-1-{3-phenyl-8-azabicyclo[3.2.1]oct-2-en-8-yl}propan-1-one] | 113.972% |
| CCOc1ccc(C=C(C#N)C(=O)Nc2ccncc2)cc1 [8-I22, 2-cyano-3-(4-ethoxyphenyl)-N-(pyridin-4-yl)prop-2-enamide] | 84.6473% |
| C=CC(=O)NCCCn1ccnc1C#N [2-N05, N-[3-(2-cyano-1H-imidazol-1-yl)propyl]prop-2-enamide] | 87.7285% |
